{"source": "PubChem BioAssay AID743255", "about": "(National Center for Advancing Translational Sciences (NCATS), 2014)", "note": "Out of some 390,000 compounds screened, about 910 (0.23%) were called active. Inconclusive results (about 5%) are left out. The call rests on the fitted dose curve; in most records, active means well fitted inhibition curve with a large enough effect; inconclusive means small, poorly fitted or top-dose-only effect; inactive means no such curve, though single readings can be large or run the other way. The list shows a part of the results, in another mix than the full data. On the % scale 0 is the no-effect control and ±100 the full control effect; potency means the concentration at half of the fitted maximal effect.", "data": [{"biological_target": "Ubiquitin carboxyl-terminal hydrolase 1 (Homo sapiens) (UniProt O94782)", "sequence (O94782 whole entry, looked up)": "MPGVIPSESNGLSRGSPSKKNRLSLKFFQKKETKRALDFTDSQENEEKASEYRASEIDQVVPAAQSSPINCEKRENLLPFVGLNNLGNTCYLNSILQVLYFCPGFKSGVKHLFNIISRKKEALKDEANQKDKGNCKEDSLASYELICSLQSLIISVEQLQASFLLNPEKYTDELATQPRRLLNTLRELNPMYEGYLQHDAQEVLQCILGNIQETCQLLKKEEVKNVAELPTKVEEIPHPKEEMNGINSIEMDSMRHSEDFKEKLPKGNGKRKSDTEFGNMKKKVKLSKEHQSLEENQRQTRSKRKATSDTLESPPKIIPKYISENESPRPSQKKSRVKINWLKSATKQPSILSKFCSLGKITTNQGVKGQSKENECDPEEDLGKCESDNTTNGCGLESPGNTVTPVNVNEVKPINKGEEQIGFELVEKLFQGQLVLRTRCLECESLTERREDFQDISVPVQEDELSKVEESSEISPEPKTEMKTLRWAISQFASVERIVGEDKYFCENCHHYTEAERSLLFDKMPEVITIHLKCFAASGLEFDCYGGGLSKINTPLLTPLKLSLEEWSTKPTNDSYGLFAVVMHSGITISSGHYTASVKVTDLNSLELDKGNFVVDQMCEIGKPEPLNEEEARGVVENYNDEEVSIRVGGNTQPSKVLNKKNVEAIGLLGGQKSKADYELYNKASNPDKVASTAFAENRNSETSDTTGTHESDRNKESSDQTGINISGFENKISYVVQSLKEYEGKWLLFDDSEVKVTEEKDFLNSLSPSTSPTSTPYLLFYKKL", "test": "Inhibitors of USP1/UAF1: Primary Screen; further: nearly all actives have a fitted effect of over 60% in size", "conditions": "recombinant USP1/UAF1, Ub-Rhodamine cleavage fluorescence; activity change, negative = inhibition: at 57.1 µM (top of the series)", "method_in_brief": "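USP1/UAF1 complex at 1 nM was preincubated with compound for 15 min at room temperature, then Ub-Rho substrate (150nM final) was added. Fluorescence (480/540 nm) was read kinetically, 6 reads every 60 seconds.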", "values": [{"smiles": "COc1ccc(-n2c(=O)[nH]c3cc(C(=O)NCCc4ccc(Cl)cc4)ccc3c2=O)cc1OC", "activity change, negative = inhibition": "inactive: 1.44%"}, {"smiles": "Nc1c(C(=O)Nc2nccs2)sc2nc(-c3cccs3)cc(C(F)(F)F)c12", "activity change, negative = inhibition": "inactive: 28.5%"}, {"smiles": "CCN1CCN(c2cc(C)c3cc(NC(=O)c4cc(OC)cc(OC)c4)ccc3n2)CC1", "activity change, negative = inhibition": "inactive: 1.11%"}, {"smiles": "CCOC(=O)c1ccc(Nc2cc3ccccc3c(=O)[nH]2)cc1", "Potency": "active: 17.8 µM"}, {"smiles": "CC1CCC(C(C)C)C(OC(=O)C[n+]2cc(-c3ccc(Cl)cc3)n3c2CCCCC3)C1", "note": "(stereo unspecified)", "activity change, negative = inhibition": "inactive: -26%"}, {"smiles": "Cn1nc(C(=O)N2CCN(c3cccc(Cl)c3)CC2)c2c1-c1ccccc1S(=O)(=O)C2", "activity change, negative = inhibition": "inactive: -22.2%"}, {"smiles": "CCOC(=O)/C=c1\\s/c(=C\\c2ccc3cc(OC)ccc3c2)c(=O)n1CC(=O)NCc1ccc2c(c1)OCO2", "activity change, negative = inhibition": "inactive: 2.53%"}, {"smiles": "Cn1c(=O)c(N)c2c3c(c(Br)ccc31)C(=O)c1ccccc1-2", "activity change, negative = inhibition": "inactive: 244%"}, {"smiles": "C[C@H](CO)N1C[C@H](C)[C@@H](CN(C)Cc2cccc3c2OCCCO3)OCc2cnnn2CCCC1=O", "activity change, negative = inhibition": "inactive: -1.78%"}, {"smiles": "Cc1ccc(C)c(N2CCN(C(=O)CCCn3ncn4c(cc5occc54)c3=O)CC2)c1", "activity change, negative = inhibition": "inactive: -14.1%"}, {"smiles": "Fc1cccc(F)c1-c1nc(-c2ccncc2)no1", "activity change, negative = inhibition": "inactive: -6.31%"}, {"smiles": "C[C@@H]1CN([C@H](C)CO)C(=O)CCCn2nncc2CO[C@H]1CN(C)S(=O)(=O)c1ccc(Cl)cc1", "activity change, negative = inhibition": "inactive: -14.5%"}, {"smiles": "COc1ccc(CN(C(=O)c2cc(=O)c3ccccc3o2)C2CCS(=O)(=O)C2)cc1OC", "note": "(stereo unspecified)", "activity change, negative = inhibition": "inactive: -16.6%"}, {"smiles": "COc1cc(NC(=O)c2cnc(N)o2)cc(C(=O)Nc2cccc(C(F)(F)F)c2)c1", "activity change, negative = inhibition": "inactive: -28.4%"}, {"smiles": "Cc1ncc(CO)c2c1Oc1nc(-c3ccccc3)nc(SCC(=O)N3CCCCC3)c1C2", "activity change, negative = inhibition": "inactive: -13.7%"}, {"smiles": "COc1ccc(C)cc1NC(=O)CN1C(=O)COc2ccc(S(=O)(=O)N3CCOCC3)cc21", "activity change, negative = inhibition": "inactive: -25.9%"}, {"smiles": "CC(C)(C)OC(=O)C[C@H]1C/C=C\\C[C@@H](CC(=O)N[C@H](CO)Cc2ccccc2)C(=O)N2CCC[C@H]2COC1=O", "activity change, negative = inhibition": "inactive: -12.2%"}, {"smiles": "C[C@H](NC(=O)c1nc[nH]c1C(=O)N[C@@H](Cc1ccccc1)C(=O)OCc1ccccc1)c1ccccc1", "activity change, negative = inhibition": "inactive: -16.8%"}, {"smiles": "O=C(NCc1ccco1)/C(=C/C=C/c1ccccc1)NC(=O)c1ccco1", "activity change, negative = inhibition": "inactive: -16.8%"}, {"smiles": "Cc1nn(C(C)C(=O)NCc2ccco2)c(=O)c2nn(-c3ccccc3)c(C)c12", "note": "(stereo unspecified)", "activity change, negative = inhibition": "inactive: -8.27%"}, {"smiles": "O=C(NCc1ccccc1Cl)c1ccc2c(c1)NC(=O)C(CS(=O)(=O)Cc1ccc(Cl)cc1)N2", "note": "(stereo unspecified)", "activity change, negative = inhibition": "inactive: 61.2%"}, {"smiles": "COC(C[C@H]1O[C@H]1[C@H](O)COCc1ccccc1)OC", "activity change, negative = inhibition": "inactive: -27.2%"}, {"smiles": "CCOC(=O)N(C)C[C@@H]1OCc2cnnn2CCCC(=O)N([C@H](C)CO)C[C@@H]1C", "activity change, negative = inhibition": "inactive: -16.9%"}, {"smiles": "COc1cc(/C=C2\\Oc3cc(O)ccc3C2=O)ccc1O", "Potency": "active: 28.2 µM"}, {"smiles": "C[C@H]1CN([C@@H](C)CO)S(=O)(=O)c2ccc(Br)cc2O[C@@H]1CN(C)Cc1ccccc1", "activity change, negative = inhibition": "inactive: -33.7%"}, {"smiles": "COc1ccc(S(=O)(=O)N(C)C[C@H]2OCc3cnnn3CCCC(=O)N([C@H](C)CO)C[C@@H]2C)cc1", "activity change, negative = inhibition": "inactive: -3.93%"}, {"smiles": "COc1ccccc1N1CCN(C(=O)c2cc3c(s2)-c2ccccc2OC3)CC1", "activity change, negative = inhibition": "inactive: 0.56%"}, {"smiles": "C[C@H](CO)N1C[C@H](C)[C@@H](CN(C)S(=O)(=O)c2ccc(F)cc2)Oc2ccc(NC(=O)Nc3ccc4c(c3)OCO4)cc2C1=O", "activity change, negative = inhibition": "inactive: -9%"}, {"smiles": "C=CC[C@H](CC(=O)N(CCO)Cc1ccccc1)C(=O)N[C@H](COC(=O)[C@@H](CC=C)CC(=O)OC(C)(C)C)Cc1ccccc1", "activity change, negative = inhibition": "inactive: -17.1%"}, {"smiles": "Nc1ccn([C@@H]2O[C@H](CO)[C@@H](O)[C@@H]2O)c(=O)n1", "activity change, negative = inhibition": "inactive: -21.9%"}, {"smiles": "CCSC(=O)N=Nc1ccc(O)cc1", "Potency": "active: 31.6 µM"}, {"smiles": "COc1ccc(C(CNC(=O)COc2ccc(C)c(C)c2)N2CCCCC2)cc1", "note": "(stereo unspecified)", "activity change, negative = inhibition": "inactive: -11.3%"}, {"smiles": "Cc1ccc(NC(=O)CN2C(=O)CCSc3ccc(S(=O)(=O)N4CCCC4)cc32)cc1", "activity change, negative = inhibition": "inactive: -15.9%"}, {"smiles": "C[C@@H]1CN([C@H](C)CO)C(=O)CCCn2nncc2CO[C@H]1CN(C)S(=O)(=O)c1ccc(-n2cccn2)cc1", "activity change, negative = inhibition": "inactive: -20%"}, {"smiles": "O=C1NC(=O)C(c2ccccc2)(c2ccccc2)N1", "activity change, negative = inhibition": "inactive: -15.6%"}, {"smiles": "O=C(O)C(=O)/C(=C\\c1ccc(Cl)cc1)c1ccc2ccccc2n1", "activity change, negative = inhibition": "inactive: 28.1%"}, {"smiles": "COc1ccc(CN2CCN(S(=O)(=O)c3ccccc3)CC2)c(OC)c1", "activity change, negative = inhibition": "inactive: -15.1%"}, {"smiles": "N#Cc1sc2nc(-c3ccccc3)cc(-c3ccco3)c2c1N", "Potency": "active: 3.98 µM"}, {"smiles": "COc1cccc(NC(=O)C2CCCN2S(=O)(=O)c2ccc3c(c2)n(C)c(=O)c(=O)n3C)c1", "note": "(stereo unspecified)", "activity change, negative = inhibition": "inactive: -6.23%"}, {"smiles": "CCOC(=O)c1c(NC(=O)c2ccco2)n(C2CCCCC2)c2nc3ccccc3nc12", "Potency": "active: 15.8 µM"}, {"smiles": "C[C@H](NC(=O)c1ncn2c1C(=O)NC[C@@H]2C)C(=O)OC(C)(C)C", "activity change, negative = inhibition": "inactive: -13.2%"}, {"smiles": "OCC[C@@H]1C[C@@H](O)[C@H](O)[C@@]2(OCc3ccccc32)O1", "activity change, negative = inhibition": "inactive: 7.75%"}, {"smiles": "COC(C[C@@H](O)C[C@@H](O)COCc1ccccc1)OC", "activity change, negative = inhibition": "inactive: -21.2%"}, {"smiles": "COc1ccc2c(c1)S/C(=C\\C(=O)c1ccncc1)N2C", "activity change, negative = inhibition": "inactive: 102%"}, {"smiles": "Cc1ccc(NC(=O)COc2ccc(/C(N)=N/O)cc2)cc1C", "activity change, negative = inhibition": "inactive: -7.95%"}, {"smiles": "Cc1ccc(NC(=O)CSc2nnc(NC(=O)NC3CCCCC3)s2)cc1", "activity change, negative = inhibition": "inactive: -26.5%"}, {"smiles": "C[C@H]1CCC[C@]2(O[C@H](CCO)C[C@@H](O)[C@@H]2O)O1", "activity change, negative = inhibition": "inactive: -19%"}, {"smiles": "C[C@@H]1CN([C@H](C)CO)C(=O)CCCn2nncc2CO[C@@H]1CN(C)C(=O)c1cc(-c2ccccc2)on1", "activity change, negative = inhibition": "inactive: 5.59%"}, {"smiles": "CCCSc1ccc([C@@H]2[C@@H]3C(=O)N(CC)C(=O)[C@@H]3[C@]3(C(=O)OC)CCCCN23)cc1", "activity change, negative = inhibition": "inactive: 8.89%"}, {"smiles": "CCN(CC)C(=O)Cn1c(=O)n(CCCCCC(=O)Nc2ccccc2)c(=O)c2sccc21", "activity change, negative = inhibition": "inactive: -14.2%"}, {"smiles": "O=C(C1CCCCC1)N1C[C@@H](n2cc(-c3ccc(F)cc3)nn2)[C@H](O)C[C@@H]1c1ccc(Cl)cc1", "activity change, negative = inhibition": "inactive: -24.8%"}, {"smiles": "CCn1c(C)c(C)c2cc(C(=O)NCCCN3CCCCC3)ccc21", "activity change, negative = inhibition": "inactive: -2.29%"}, {"smiles": "O=c1oc2cc(O)ccc2cc1-c1nc2c(s1)CCc1ccccc1-2", "activity change, negative = inhibition": "inactive: 242%"}, {"smiles": "CCc1nc2ccc(C(=O)N3CCN(c4cccc(C)c4C)CC3)cc2nc1CC", "activity change, negative = inhibition": "inactive: -19.9%"}, {"smiles": "Cc1nc2nc(SCC(=O)O)nn2c(C)c1Cc1c(F)cccc1Cl", "activity change, negative = inhibition": "inactive: -8.41%"}, {"smiles": "CC(C)(C)OC(=O)C[C@H]1C/C=C\\C[C@@H](CC(=O)N(CCO)Cc2ccccc2)C(=O)N[C@@H](Cc2ccccc2)COC1=O", "activity change, negative = inhibition": "inactive: -22.8%"}]}]}
